Paper PMC3217859
No constants are given. Whether binding was seen depends on the method and setting. In cells and extracts the contact can be indirect. Some entries that bind do so weakly or less than the wild type. Tags and fused reporters may be left off the sequences shown.

Legend:
Experiment in all cases: co-IP; anti-HA immunoprecipitates (12CA5 with protein A-Sepharose, or F7 anti-HA-agarose when probing for Mst3 or Mst4; 1.5 h, 4°C) of lysates (1% Nonidet P-40, 0.135 M NaCl, 10% glycerol, 20 mM Tris pH 8.0) of HEK293 cells transfected with HA-striatins; endogenous partners by immunoblot, partner/HA-striatin ratio by chemilumimager against wild type; 50 mM NaF and 100 nM okadaic acid in the lysis buffer in the phosphorylation experiments
[1] = molecular target: T1, HA-tagged L84A/L94A/I102A striatin (human) (UniProt O43815)
T1 sequence: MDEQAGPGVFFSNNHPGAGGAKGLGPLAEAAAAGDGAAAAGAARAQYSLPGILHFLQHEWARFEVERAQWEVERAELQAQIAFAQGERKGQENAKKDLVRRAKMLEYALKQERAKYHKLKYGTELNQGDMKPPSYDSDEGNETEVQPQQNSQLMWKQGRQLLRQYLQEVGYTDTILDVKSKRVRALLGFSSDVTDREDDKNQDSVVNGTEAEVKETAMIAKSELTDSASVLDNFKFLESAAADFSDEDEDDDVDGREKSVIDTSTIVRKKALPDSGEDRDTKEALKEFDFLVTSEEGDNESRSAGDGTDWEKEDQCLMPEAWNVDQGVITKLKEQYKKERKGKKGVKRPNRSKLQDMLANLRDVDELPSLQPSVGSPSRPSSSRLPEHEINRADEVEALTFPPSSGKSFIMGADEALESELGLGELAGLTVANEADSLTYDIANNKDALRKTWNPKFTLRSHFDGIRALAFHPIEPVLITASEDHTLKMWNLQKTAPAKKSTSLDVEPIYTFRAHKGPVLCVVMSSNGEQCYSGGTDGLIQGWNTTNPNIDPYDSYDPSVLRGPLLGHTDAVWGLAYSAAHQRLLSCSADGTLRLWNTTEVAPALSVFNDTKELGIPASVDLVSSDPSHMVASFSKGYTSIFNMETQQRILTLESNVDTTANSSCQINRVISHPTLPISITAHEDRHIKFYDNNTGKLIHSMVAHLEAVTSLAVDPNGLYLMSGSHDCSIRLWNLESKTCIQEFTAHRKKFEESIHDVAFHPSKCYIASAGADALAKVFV

[2] = molecular target: T2, HA-tagged wild-type striatin (human) (UniProt O43815)
T2 sequence: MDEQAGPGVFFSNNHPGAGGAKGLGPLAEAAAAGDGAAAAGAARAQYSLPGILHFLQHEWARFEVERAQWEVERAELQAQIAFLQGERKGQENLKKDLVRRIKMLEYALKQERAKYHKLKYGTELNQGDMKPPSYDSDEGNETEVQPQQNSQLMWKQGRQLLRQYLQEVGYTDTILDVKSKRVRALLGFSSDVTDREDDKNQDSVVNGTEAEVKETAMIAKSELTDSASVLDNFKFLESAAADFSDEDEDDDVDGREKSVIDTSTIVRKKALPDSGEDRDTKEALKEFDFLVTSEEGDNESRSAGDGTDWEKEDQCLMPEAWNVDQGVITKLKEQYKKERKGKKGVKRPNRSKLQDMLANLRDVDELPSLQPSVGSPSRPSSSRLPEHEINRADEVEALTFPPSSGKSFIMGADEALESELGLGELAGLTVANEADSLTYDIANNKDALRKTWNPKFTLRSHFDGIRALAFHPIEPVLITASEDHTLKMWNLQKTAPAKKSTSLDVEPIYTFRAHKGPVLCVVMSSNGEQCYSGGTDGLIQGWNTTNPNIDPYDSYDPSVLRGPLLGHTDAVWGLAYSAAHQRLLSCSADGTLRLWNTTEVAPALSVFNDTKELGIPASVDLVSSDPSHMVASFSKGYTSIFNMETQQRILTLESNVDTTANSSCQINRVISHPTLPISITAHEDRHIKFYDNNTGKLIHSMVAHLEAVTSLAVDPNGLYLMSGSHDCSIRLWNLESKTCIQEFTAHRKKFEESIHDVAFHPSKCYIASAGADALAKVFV

[3] = molecular target: T3, HA-tagged L84A/L94A/L105A striatin (human) (UniProt O43815)
T3 sequence: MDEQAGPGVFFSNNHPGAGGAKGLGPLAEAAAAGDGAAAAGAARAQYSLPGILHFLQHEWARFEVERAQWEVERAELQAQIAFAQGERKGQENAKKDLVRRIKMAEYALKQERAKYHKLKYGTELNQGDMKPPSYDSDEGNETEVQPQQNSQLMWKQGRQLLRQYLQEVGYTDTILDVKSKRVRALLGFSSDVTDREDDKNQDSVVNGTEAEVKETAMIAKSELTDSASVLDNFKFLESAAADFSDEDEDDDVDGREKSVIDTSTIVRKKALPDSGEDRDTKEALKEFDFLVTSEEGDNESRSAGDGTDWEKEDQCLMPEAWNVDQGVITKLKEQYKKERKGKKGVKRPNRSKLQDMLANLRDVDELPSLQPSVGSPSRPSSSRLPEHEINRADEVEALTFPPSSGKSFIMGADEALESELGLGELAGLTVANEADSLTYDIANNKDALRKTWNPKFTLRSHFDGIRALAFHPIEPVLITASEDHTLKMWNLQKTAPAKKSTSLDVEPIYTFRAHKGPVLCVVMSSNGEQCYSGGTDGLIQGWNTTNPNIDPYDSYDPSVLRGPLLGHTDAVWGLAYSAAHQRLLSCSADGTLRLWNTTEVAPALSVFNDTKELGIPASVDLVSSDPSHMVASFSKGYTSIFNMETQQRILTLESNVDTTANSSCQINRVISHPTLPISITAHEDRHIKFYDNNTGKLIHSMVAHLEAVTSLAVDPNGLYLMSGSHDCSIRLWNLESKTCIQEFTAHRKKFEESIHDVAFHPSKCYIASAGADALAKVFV

Measured: binding

B1: Mob3/phocein (protein, UniProt Q9Y3A3 1-225)
chain: MVMAEGTAVLRRNRPGTKAQDFYNWPDESFDEMDSTLAVQQYIQQNIRADCSNIDKILEPPEGQDEGVWKYEHLRQFCLELNGLAVKLQSECHPDTCTQMTATEQWIFLCAAHKTPKECPAIDYTRHTLDGAACLLNSNKYFPSRVSIKESSVAKLGSVCRRIYRIFSHAYFHHRQIFDEYENETFLCHRFTKFVMKYNLMSKDNLIVPILEEEVQNSVSGESEA
binds: [1] | [2] | [3]

B2: S/G2 nuclear autoantigen (SG2NA) (protein, UniProt Q13033 1-797)
chain: MDELAGGGGGGPGMAAPPRQQQGPGGNLGLSPGGNGAAGGGGPPASEGAGPAAGPELSRPQQYTIPGILHYIQHEWARFEMERAHWEVERAELQARIAFLQGERKGQENLKKDLVRRIKMLEYALKQERAKYHKLKYGTELNQGDLKMPTFESEETKDTEAPTAPQNSQLTWKQGRQLLRQYLQEVGYTDTILDVRSQRVRSLLGLSNSEPNGSVETKNLEQILNGGESPKQKGQEIKRSSGDVLETFNFLENADDSDEDEENDMIEGIPEGKDKHRMNKHKIGNEGLAADLTDDPDTEEALKEFDFLVTAEDGEGAGEARSSGDGTEWDKDDLSPTAEVWDVDQGLISKLKEQYKKERKGKKGVKRANRTKLYDMIADLGDDELPHIPSGIINQSRSASTRMTDHEGARAEEAEPITFPSGGGKSFIMGSDDVLLSVLGLGDLADLTVTNDADYSYDLPANKDAFRKTWNPKYTLRSHFDGVRALAFHPVEPVLVTASEDHTLKLWNLQKTVPAKKSASLDVEPIYTFRAHIGPVLSLAISSNGEQCFSGGIDATIQWWNMPSPSVDPYDTYEPNVLAGTLVGHTDAVWGLAYSGIKNQLLSCSADGTVRLWNPQEKLPCICTYNGDKKHGIPTSVDFIGCDPAHMVTSFNTGSAVIYDLETSQSLVILSSQVDSGLQSNNHINRVVSHPTLPVTITAHEDRHIKFFDNKTGKMIHSMVAHLDAVTSLAVDPNGIYLMSGSHDCSIRLWNLDSKTCVQEITAHRKKLDESIYDVAFHSSKAYIASAGADALAKVFV
binds: [1] | [2] | [3]
